Measurements published in PubChem BioAssay AID1963576 (National Center for Advancing Translational Sciences (NCATS), 2024).
Screen size: about 46,000 compounds; about 60 (0.1%) were called active. Roughly 3% stayed inconclusive and do not appear here. Calls follow the shape of the dose curve; as a rule, active = well fitted inhibition curve with a large enough effect; inconclusive = small, poorly fitted or top-dose-only effect; inactive = no such curve, though single readings can be large or run the other way. Some of the results follow.

test: Primary qHTS assay for Inhibitors of ovarian cancer metastasis using an organotypic tumor microenvironment (TME) model.; also: nearly all actives have a fitted effect of over 65% in size;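 as to activity change, negative = inhibition: plate controls were DMSO wells for no effect and tomatine positive control wells for full effect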; settings: SKOV3ip1-GFP adhesion/invasion on 3D omental model, fluorescence; series mostly up to 45.8 µM; activity change, negative = inhibition: at the top concentration
How it was run: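 Primary human omental fibroblast/mesothelial 3D culture pre-formed 48 h. SKOV3ip1-GFP cells added with compounds (0.36-46 umol/L), incubated 2 h RT/16 h 37 C, fixed; GFP cells quantified at 488/509 nm.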

Structure (SMILES) | activity change, negative = inhibition | outcome
Cc1cccc(C(=O)NCC(c2ccc3c(c2)OCO3)N2CCOCC2)c1 (stereo not given) | inactive: 2.96% | 
Cc1ccc(-c2noc(CSc3nnc(-c4ccc(Cl)cc4)n3C)n2)cc1 |  | inactive
O=C(c1ccco1)c1cn(CCOc2ccc(Cl)cc2)c2ccccc12 | inactive: 5.33% | 
CCc1ccc(C2C(C(=O)Nc3ccccc3)=C(C)Nc3nc(SCC(=O)c4ccc(C)cc4)nn32)cc1 (stereo not given) |  | inactive
CCc1cccc2c3c([nH]c12)C(CC)(CC(=O)O)OCC3 (stereo not given) | inactive: -9.27% | 
COc1ccc(NC(=O)c2cnc(SCC(=O)Nc3nc4ccc(C)cc4s3)n(C)c2=O)cc1 | inactive: 28.7% | 
CC(=O)c1ccc(NC(=O)Cn2c3ncccc3c(=O)n2-c2ccc(C)cc2)cc1 | inactive: -12.7% | 
O=C(CSc1nccn1Cc1ccccc1)NC1CCCC1 |  | inactive
CCC(=O)N1CCc2cc(CNC(=O)Nc3ccc(OC)cc3OC)ccc21 | inactive: -4.93% | 
O=C(NCCc1ccccc1)C(=O)NCC(c1cccnc1)N1CCN(c2ccc(F)cc2)CC1 (stereo not given) | inactive: -2.48% | 
COc1ccccc1-c1cc(C(F)(F)F)nc(S(=O)(=O)CCCC(=O)Nc2cc(Br)ccc2O)n1 | inactive: -0.925% | 
CCN(C(=O)CN(C)S(=O)(=O)c1ccc2c(c1)n(C)c(=O)c(=O)n2C)c1cccc(C)c1 | inactive: -13% | 
COc1ccc(NC(=O)C2CCN(S(=O)(=O)c3c(C)noc3/C=C/c3ccco3)CC2)cc1 |  | inactive
Cc1cccc(-c2noc(-c3ccc(N4CCCC4)c([N+](=O)[O-])c3)n2)c1 | inactive: 1.27% | 
CCOc1ccc(Nc2nc3ccccc3c3nnc(CC)n23)cc1 | inactive: 3.97% | 
COc1ccc(NS(=O)(=O)c2ccc3[nH]c4c(c3c2)CCCC4)c(OC)c1 | inactive: -2.95% | 
COc1cccc(NC(=O)Cn2c(=O)n(-c3cccc(OC)c3)c(=O)c3c4c(sc32)CCCC4)c1 | inactive: 1.39% | 
Cc1cc(C)c(Cn2c(=O)n(CCCCCC(=O)NCc3ccc4c(c3)OCO4)c(=O)c3sccc32)c(C)c1 | inactive: -4.25% | 
O=C(CSCc1ccc(F)cc1)N1CCN(c2ccccc2)CC1 | inactive: 5.2% | 
CN(C)c1ccc(C(CNS(=O)(=O)c2cc(F)ccc2F)N2CCOCC2)cc1 (stereo not given) | inactive: 7.54% | 
CCN(CC)C(=O)c1sc(NC(=O)C2c3ccccc3Oc3ccccc32)c(C(=O)OC(C)C)c1C | inactive: 3.01% | 
O=C(NCc1ccc(Cl)cc1)C(=O)Nc1cccc(Br)c1 |  | inactive
CC1CCC(NC(=O)c2ccc3c(c2)N(Cc2cccc(Cl)c2)C(=O)c2ccccc2S3=O)CC1 (stereo not given) |  | inactive
Cc1ccc(CN(C(=O)c2ccccc2Br)C2CCS(=O)(=O)C2)o1 (stereo not given) | inactive: 3.27% | 

Structure (SMILES) | activity change, negative = inhibition | outcome
COc1ccc(NC(=O)CC2C(=O)N(c3ccccc3)C(=O)N2Cc2cccnc2)cc1 (stereo not given) | inactive: -6.25% | 
CCOc1ccccc1NC(=O)COc1cccc2c(=O)n(CCOC)ccc12 | inactive: 0.548% | 
Cc1ccc(NC(=O)Nc2cc3c(cc2N2CCCCC2)n(C)c(=O)n3C)cc1Cl | inactive: 3.29% | 
Cn1c(=O)c2c(SCC(=O)NCc3ccco3)nc(-c3ccccc3F)nc2n(C)c1=O | inactive: 0.902% | 
C[C@@H]1CN(CC(=O)Nc2ccc3c(c2)Cc2cccc(-c4cc(=O)cc(N5CCOCC5)o4)c2S3)C[C@H](C)O1 | inactive: 5.02% | 
COc1ccc(C2=NN(C(C)=O)C(c3cn(-c4ccccc4)nc3-c3cccs3)C2)cc1 (stereo not given) |  | inactive
COc1ccc(-c2[nH]ncc2C(=O)NCc2cccc(F)c2)cc1 | inactive: -1.81% | 
CCC1CCCCN1S(=O)(=O)c1ccc(N2CCCCS2(=O)=O)cc1 (stereo not given) | inactive: 0.984% | 
CC(=O)Nc1c(C(=O)Nc2cccc(C)c2)nnn1-c1ccc(C)cc1 |  | inactive
CCOC(=O)c1ccc(NC(=O)c2c(C)oc3nc(C)nc(N4CCCC4)c23)cc1 | inactive: -12.9% | 
O=C(CCCc1nc(-c2ccco2)no1)Nc1ccccc1[N+](=O)[O-] | inactive: 2.08% | 
COc1cccc(-n2c(=O)c3c4c(sc3n(Cc3ccc(F)cc3Cl)c2=O)CCCC4)c1 | inactive: 4.2% | 
Cc1c(C(=O)Nc2ccc(Br)cc2F)oc2ccc(S(=O)(=O)N3CCC4(CC3)OCCO4)cc12 | inactive: 4.17% | 
COc1ccc(NC(=O)c2oc3ccc(S(=O)(=O)N(C)C4CCCCC4)cc3c2C)cc1Cl | inactive: -2.27% | 
Cc1ccc(Cl)cc1N1CCN(C(=O)CCSCc2ccccc2F)CC1 | inactive: -3.44% | 
COCCNC(=O)c1ccc2nc(CCc3ccccc3)oc2c1 | inactive: -8.5% | 
CCc1ccc(NC(=O)CC(c2ccc(C)cc2)N2Cc3ccccc3C2=O)cc1 (stereo not given) | inactive: -2.63% | 
Cc1ccc(-n2nc(-c3ccc(F)cc3)c3cnc4cc5c(cc4c32)OCO5)cc1C |  | inactive
Cc1cccc(N2CCN(C(=O)c3oc(=O)c4ccccc4c3-c3ccccc3)CC2C)c1 (stereo not given) |  | inactive
Cc1ccc(CNC(=O)c2ccc3c(c2)N(Cc2ccccc2Cl)C(=O)CS3)cc1 |  | inactive
Cc1ccc(C2CCN(C(=O)Nc3ccc(Cl)c(Cl)c3)C2)cc1 (stereo not given) |  | inactive
Cc1ccc(-c2nnc(Nc3ccccc3)c3ccccc23)cc1S(=O)(=O)N1CCOCC1 |  | inactive
CCOc1ccc2nc(N(Cc3cccnc3)C(=O)C3CCCCC3)sc2c1 |  | inactive
CCOC(=O)c1[nH]c(C)c(CCC(=O)Nc2ccccc2C(=O)OC)c1C | inactive: -15% | 

Structure (SMILES) | activity change, negative = inhibition | outcome
Cc1cc(N2CCN(c3ccc(F)cc3)CC2)n2nc(-c3ccc(Cl)cc3)nc2n1 |  | inactive
CCc1nn(CC(=O)NCCc2ccc(Cl)cc2)c(=O)c2cc3ccccc3n12 |  | inactive
Cc1cc(OCC(=O)NC(Cc2c[nH]c3ccccc23)C(=O)O)ccc1Cl (stereo not given) | inactive: -1.65% | 
Cc1oc2ncn(C)c(=O)c2c1C(=O)Nc1ccc(F)cc1 |  | inactive
Cc1cccc(CSc2nc(=O)c3c(n2C)NC(=O)CC3c2cc(F)cc(F)c2)c1 (stereo not given) | inactive: 0.861% | 
COc1cccc(CNC(=O)c2cccc(-n3c(C)nc4cccnc43)c2C)c1 | inactive: -2.61% | 
CC(C)OCCCNC(=O)c1ccc(Cn2c(=O)c3cccn3c3cccnc32)cc1 | inactive: -2.46% | 
Cc1oc2ccc(O)c(CN3CCN(C)CC3)c2c1C(=O)Nc1ccccc1 |  | inactive
COc1ccc(Cn2c(CCC(=O)Nc3ccc(C)cc3C)nc3cccnc32)cc1 |  | inactive
CCn1c(=O)cc(SCC(=O)NCc2ccc(Cl)cc2)c2ccccc21 |  | inactive
CCOc1cccc2cc(-c3cn4c(n3)sc3ccccc34)c(=O)oc12 | inactive: 6.97% | 
O=C(CCn1c(=O)c2sccc2n(CC(=O)Nc2ccccc2)c1=O)NCc1ccccc1Cl |  | inactive
COc1cccc(CNCc2cccn2-c2nnc(N3CCN(c4ccccc4)CC3)s2)c1 |  | inactive
COc1ccc(-c2[nH]ncc2C(=O)NCc2cccc(OC)c2)cc1 | inactive: 19% | 
CC1CCN(S(=O)(=O)c2ccc3c(ccc(=O)n3CC(=O)NCc3ccccc3Cl)c2)CC1 |  | inactive
Cc1ccc(CNC(=O)CSc2nnc(C)c3c(C)n(-c4ccccc4)nc23)cc1 | inactive: -16.3% | 
Cc1ccc2c(c1)c1c(c(=O)n(-c3ccccc3C)c(=O)n1CC(=O)c1ccc(Cl)cc1)n2C |  | inactive
CCN(C(=O)CCNC(=O)Cn1cnc2ccccc2c1=O)c1cc(OC)ccc1OC | inactive: 9.09% | 
COc1ccc(NC(=O)CSC2=Nc3ccccc3N=C(c3ccc(F)cc3)C2)cc1OC | inactive: 9.95% | 
CN(C)c1ccc(CNC(=O)CN2C(=O)CSc3ccc(S(=O)(=O)N4CCCC4)cc32)cc1 | inactive: -0.132% | 
CN(C)c1cccc(C(=O)Nc2nc3ccc(S(=O)(=O)N4CCCC4)cc3s2)c1 | inactive: -20.5% | 
O=C(Nc1ccc(O)c(-c2nc3ccccc3o2)c1)c1ccc(Br)cc1 | inactive: -12.7% | 
CCSc1ncc(Cl)c(C(=O)Nc2nc3ccc(Cl)cc3s2)n1 | inactive: -7.86% | 
CN(C)c1ccc(NC(=O)Cn2nnc3sc4c(c3c2=O)CCC(C(C)(C)C)C4)cc1 (stereo not given) | inactive: -4.78% | 

Structure (SMILES) | activity change, negative = inhibition | outcome
CCC1CN(C(=O)N2CCC(C(=O)NCc3cc(OC)c(OC)c(OC)c3)CC2)c2ccccc2O1 (stereo not given) |  | inactive
O=S(=O)(c1ccc(Cl)cc1)c1nnn2c1nc(NC1CCCCC1)c1sccc12 | inactive: -0.279% | 
Cc1ccc(-n2c(=O)c3c(cnn3C)n(Cc3ccc(Cl)cc3)c2=O)cc1 |  | inactive
Cc1cc(NC(=O)CCc2nc3cccnc3n2Cc2cccs2)ccc1Br | inactive: 2.19% | 
COc1ccnc2[nH]cc(C(=O)C(=O)N3CCN(C(=O)c4ccccc4)C[C@@H]3C)c12 | inactive: -8.23% | 
Cc1cccc(NC(=O)c2oc3ccccc3c2NC(=O)c2cc(=O)c3ccc(C)cc3o2)c1 | inactive: -2.79% | 
CC(=O)Nc1ccc(NC(=O)C2CCN(S(=O)(=O)c3ccc4c(c3)CCCC(=O)N4)CC2)cc1 | inactive: 5.82% | 
CCc1ccccc1NC(=O)CSc1nnc(-c2ccc(OC)cc2)s1 | inactive: 12.1% | 
Cc1ccc(NS(=O)(=O)c2cc(-c3cc(C)no3)ccc2C)c(Cl)c1 | inactive: 1.04% | 
CCOc1ccc2nc(N3CCCC(C(=O)Nc4cc(C)ccc4C)C3)sc2c1 (stereo not given) | inactive: 7.69% | 
Cc1ccc(NC(=O)Nc2c[nH]c(=O)[nH]c2=O)c(Cl)c1 | inactive: -0.319% | 
Cc1nc2ccc(CN(C)c3ccc(C(=O)N[C@@H](CCC(=O)O)C(=O)O)s3)cc2c(=O)[nH]1 | inactive: -1.81% | 
CCOc1ccc(CNC(=O)c2ccc3[nH]c(C)c(C)c3c2)cc1OC |  | inactive
CCc1ccc(NC(=O)N(Cc2c[nH]c3ccccc23)C2CCCCC2)cc1 |  | inactive
CCOc1cc(C2c3c(oc4ccccc4c3=O)C(=O)N2Cc2ccc(OC)cc2)ccc1O (stereo not given) | inactive: -10.2% | 
Cc1ccc(OCC(=O)NCC(c2ccc(Cl)cc2)N2CCOCC2)cc1C (stereo not given) | inactive: 9.28% | 
Cc1ccn2c(=O)cc(COc3ccc(NC(=O)COc4ccc(C)c(C)c4)cc3)nc2c1 | inactive: -9.79% | 
COCCNC(=O)CCCn1c(SCC(=O)c2ccc(Br)cc2)nc2c(sc3ccccc32)c1=O | inactive: 1.86% | 
COc1ccc(C)cc1NC(=O)c1cnc2ccc(C)cn2c1=O | inactive: -10.2% | 
Cc1cc2c(cc3c(SCc4ccc(Cl)cc4)nncn32)o1 | inactive: 0.998% | 
O=c1c2ccccc2n(Cc2c(F)cccc2Cl)c(=O)n1CCc1ccccc1 | inactive: 8.48% | 
Cc1ccc(-c2nc3c4ccccc4n(CC(=O)NCc4ccc(F)cc4)c(=O)n3n2)cc1 |  | inactive
CCOC(=O)c1c(C)[nH]c(C)c1S(=O)(=O)N(C)CC(=O)NCc1ccc(Cl)cc1 | inactive: -12.5% | 
